{"source": "paper PMC10691697", "about": "“A small molecule exerts selective antiviral activity by targeting the human cytomegalovirus nuclear egress complex” (PLOS Pathogens, 2023)", "assay_in_all_cases": "biochemical", "format_in_all_cases": "binding", "key": {"UL50_C54S+UL53": {"biological_target": "T1, UL50_C54S+UL53 (Human cytomegalovirus, UniProt P16794)", "T1 construct": "GST (N, cleaved yes); 13-residue glycine-serine linker […]; made in house; host or cells: E. coli BL21 (DE3) RIPL", "details": "replicates, read-out: normalized FRET signal relative to control without inhibitor; for remaining activity at 1.56 µM: 1.56 μM compound; for remaining activity at 50 µM: 50.00 μM compound; for remaining activity at 25 µM: […] compound"}, "UL50_C79S+UL53": {"biological_target": "T2, UL50_C79S+UL53 (Human cytomegalovirus, UniProt P16794)", "T2 construct": "GST (N, cleaved yes); 13-residue glycine-serine linker […]; made in house; host or cells: E. coli BL21 (DE3) RIPL", "details": "replicates, read-out: normalized FRET signal relative to control without inhibitor; for remaining activity at 1.56 µM: 1.56 μM compound; for remaining activity at 25 µM: […] compound"}, "UL50_C35N+UL53": {"biological_target": "T3, UL50_C35N+UL53 (Human cytomegalovirus, UniProt P16794)", "T3 construct": "GST (N, cleaved yes); 13-residue glycine-serine linker […]; made in house; host or cells: E. coli BL21 (DE3) RIPL", "details": "replicates, read-out: normalized FRET signal relative to control without inhibitor; for remaining activity at 1.56 µM: 1.56 μM compound; for remaining activity at 50 µM: 50.00 μM compound; for remaining activity at 25 µM: […] compound"}}, "data": [{"smiles": "C=CC(=O)Nc1cccc(Oc2cc(Cl)nc3[nH]ccc23)c1", "note": "[GK1]", "values": [{"measurement": "remaining activity at 1.56 µM", "setting": "UL50_C54S+UL53", "result": 81, "unit": "%"}, {"measurement": "remaining activity at 50 µM", "setting": "UL50_C54S+UL53", "result": 30, "unit": "%"}, {"measurement": "remaining activity at 25 µM", "setting": "UL50_C54S+UL53", "result": 33, "unit": "%"}, {"measurement": "remaining activity at 1.56 µM", "setting": "UL50_C79S+UL53", "result": 100, "unit": "%"}, {"measurement": "remaining activity at 25 µM", "setting": "UL50_C79S+UL53", "result": 63, "unit": "%"}, {"measurement": "remaining activity at 1.56 µM", "setting": "UL50_C35N+UL53", "result": 100, "unit": "%"}, {"measurement": "remaining activity at 50 µM", "setting": "UL50_C35N+UL53", "result": 37, "unit": "%"}, {"measurement": "remaining activity at 25 µM", "setting": "UL50_C35N+UL53", "result": 55, "unit": "%"}]}, {"smiles": "C=CC(=O)Nc1cccc(Oc2ccnc3[nH]ccc23)c1", "note": "[GK2]", "values": [{"measurement": "remaining activity at 1.56 µM", "setting": "UL50_C54S+UL53", "result": 89, "unit": "%"}, {"measurement": "remaining activity at 50 µM", "setting": "UL50_C54S+UL53", "result": 48, "unit": "%"}, {"measurement": "remaining activity at 25 µM", "setting": "UL50_C54S+UL53", "result": 88, "unit": "%"}, {"measurement": "remaining activity at 1.56 µM", "setting": "UL50_C79S+UL53", "result": 100, "unit": "%"}, {"measurement": "remaining activity at 25 µM", "setting": "UL50_C79S+UL53", "result": 67, "unit": "%"}, {"measurement": "remaining activity at 1.56 µM", "setting": "UL50_C35N+UL53", "result": 98, "unit": "%"}, {"measurement": "remaining activity at 50 µM", "setting": "UL50_C35N+UL53", "result": 57, "unit": "%"}, {"measurement": "remaining activity at 25 µM", "setting": "UL50_C35N+UL53", "result": 74, "unit": "%"}]}]}
